Reference: the supplement of paper PMC10126150
Sequences with one replicate were seen in a single cluster, so their values are uncertain.

Tested on: ATP
Assay: switch fluorescence ratio, 500 uM ATP over buffer (Cy3 cluster intensity, sum of 5 cycles each) (fold (ratio)); higher = stronger signal-on switching upon ATP binding; sequences stand for … in TCGTCGGCAGCGTCAGATGTGTATAAGAGACAGTTTTTTTTTTTTTTTTTTTTTTTTT…TC
Settings: aptamer strand: ATP DNA aptamer (quencher-CACCTGGGGGAGTATTGCGGAGGAAGG + anchor), 100 nM annealed; ATP concentration: 500 uM; one replicate
How it was run: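 For every switch-domain sequence, the fluorescence ratio is the mean of per-cluster values, each being summed target-cycle Cy3 intensity over summed buffer-cycle Cy3 intensity. Clusters outside 100-1000 RFU were excluded. On a modified Illumina MiSeq flow-cell, the Cy3-labelled switching-strand clusters were annealed to 100 nM quencher-labelled ATP aptamer, imaged in selection buffer and then after 15 min with 500 uM ATP at 22 °C. Five such cycles were run, with NaOH stripping and re-annealing between them.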
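Further: ATP exposure 15 min at 22 °C before imaging.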

Row | Sequence | switch fluorescence ratio
1 | ACGATAAGGG | 1.06
2 | ATCTGAATTA | 1.07
3 | GAAGCTTAAC | 2.17
4 | AACTAAACTG | 1.13
5 | GTTTGATCTC | 0.933
6 | GGCCTAATTT | 1.04
7 | GTTGATTAAG | 0.975
8 | AGTGTTACCT | 1.1
9 | TTATCTCAGC | 1.01
10 | GGTCACTGCC | 1.07
11 | ACAAGATGGA | 0.963
12 | GAACCACGGA | 1.04
13 | CCATTCATGG | 0.973
14 | TCATGAGTTA | 1
15 | AAGTAGTGAT | 1.01
16 | AGATGGATG | 0.991
17 | CCGCGAATGT | 4.5
18 | CTGGTTATTA | 1.03
19 | CGATCACTGG | 1.03
20 | CTTGCTTGAC | 1.08
21 | TTCCGGCTTG | 1.02
22 | TCCCGATACT | 3.55
23 | ATGGCAAATA | 1.05
24 | GCGCGGTGGT | 1.06
25 | ATAGGCCAA | 1.03
26 | TAGCGGTTT | 0.982

Row | Sequence | switch fluorescence ratio
27 | TTTCAGTCGT | 1
28 | GCGTTTGATG | 1.01
29 | GGCACTTGCC | 0.979
30 | CCTTGGGGGT | 1.02
31 | CGTTGCCAAA | 0.991
32 | ACTGTAGCGT | 1.16
33 | CGGTCGCGGT | 1.01
34 | TCTATCGGGG | 0.972
35 | ATAAGGGA | 1.02
36 | GCATATTAAT | 0.963
37 | GGTGACGGAG | 0.907
38 | ACGTGTGATA | 0.992
39 | AAAATCCGT | 1.04
40 | CGCACGGGGA | 1.05
41 | TTAATCGGAT | 0.986
42 | AGAATGCCAT | 1.01
43 | GTTTATAG | 1.17
44 | TAGTAACATT | 1.04
45 | ACCACCATCA | 1.17
46 | ACCGTAAGGG | 0.982
47 | ATCAGCGTTG | 0.991
48 | GTTCTAGCTT | 0.996
49 | TGGTAAGACA | 1.03
50 | GGTCGTGGGT | 0.984
51 | CGGCCTCGC | 1.07
52 | TGTTGCCCGG | 1.05

Row | Sequence | switch fluorescence ratio
53 | TAACAGACA | 1.09
54 | CAATCTATTA | 0.997
55 | AGAGGGCTGC | 1.02
56 | TCTAAAAGGA | 0.936
57 | ACGCTTAGAT | 1.04
58 | CGAGCTCACA | 1.02
59 | AGATAGATGC | 1.05
60 | TCAAGGGGGG | 1.01
61 | TGACAGAGCA | 1.32
62 | GGGGTAGAGC | 0.972
63 | CAGGTGCGTA | 1.12
64 | GGTTGAAGC | 1.15
65 | CTTGTTTAAG | 1.03
66 | CGATTTAGTG | 0.972
67 | ATGTCCACAA | 1.21
68 | AAAGCATCAG | 1.01
69 | AGTCACGTCG | 0.953
70 | ATTAAGCCGG | 0.966
71 | ACGTGTCGTC | 0.958
72 | CTCTAAGGG | 1.08
73 | TGGTATTGTA | 1.02
74 | TAGGCTGCCT | 1.01
75 | GTTGCGCTT | 0.964
76 | TATTGT | 1.03
77 | GAGTCACAAT | 1.06
78 | TGTCATAGG | 0.999

Row | Sequence | switch fluorescence ratio
79 | TATTTTTTG | 0.95
80 | GACATTTGAC | 1.04
81 | ACGTCGTATC | 0.991
82 | TGGCAGAA | 0.952
83 | GTGGCAATTT | 1.09
84 | CTCTTATGGC | 1.02
85 | TCGAACAGCT | 0.992
86 | TTGTATTTAC | 1.18
87 | AGCACTTTCT | 1.04
88 | AGAACGTGAG | 1
89 | CCATCTTTTA | 1
90 | TCCTCACTTC | 1.54
91 | GCTTTACGG | 1.01
92 | TGTTAATTTA | 1.01
93 | CTTTAGATCG | 1.01
94 | CAAACTCTT | 1
95 | GTGCCCCGGG | 1.51
96 | GTTTTATCTA | 1.02
97 | GTGGTCCTA | 0.966
98 | CAGAAGAACA | 0.992
99 | GCTGCGCGCA | 1.02
100 | TCAATTTTAT | 1.03
101 | GACGTTCAGG | 0.995
102 | AGTAAGTAGC | 0.962
103 | AGTTTCATAG | 1.01
104 | ATGGCTCTG | 0.996

Row | Sequence | switch fluorescence ratio
105 | CCGAGGTGGG | 1.06
106 | GAATGGCACC | 1.03
107 | GTCCCGCAGG | 2.13
108 | ACTCAATGT | 1.03
109 | GGGCATTAAC | 1.12
110 | CCGGGGGAGC | 0.979
111 | ATATTATCGG | 0.97
112 | TGCGCGCCTC | 1.01
113 | TAGCTTCGGG | 0.961
114 | GCTCTAATTC | 1.11
115 | TCTCGAAATG | 1.08
116 | AGTACATTGG | 1
117 | GGTGTGCAAC | 0.987
118 | GGGATGGAAA | 0.997
119 | GTGTGATGTC | 1.05
120 | GGTCAGCAGC | 1.09
121 | GCCGCCGGTC | 1.03
122 | TTTGCCCGGG | 1.34
123 | CTTGTCACAA | 0.971
124 | CTAACTCAAT | 1.16
125 | TCAAGTGAGT | 1
126 | ACTGGTAATA | 1.05
127 | TTGGGACTGC | 1.03
128 | AACGCATCAT | 1.08
129 | GCCAAAAAA | 0.999
130 | CAGCTCTATT | 1.03

Row | Sequence | switch fluorescence ratio
131 | CTTCTTCAAC | 1.07
132 | TTCAGTGCCT | 0.962
133 | GTGCAATGCA | 1.02
134 | CCTAGTGAAG | 1.03
135 | ATGGCTATG | 1.01
136 | CTAATCGG | 1.04
137 | GTCAATGCTA | 1.09
138 | GGAGTGACAG | 1.04
139 | AGTTAGAAA | 0.973
140 | AGAGAAAAGT | 0.998
141 | ATGCGTATCG | 0.939
142 | AGAGGATGAG | 0.952
143 | AGAGAACTTA | 1.02
144 | CTGCCGGGCC | 0.987
145 | CATTAAGTAG | 1.01
146 | ACTCCCCAAA | 2.9
147 | TACCTGGAAG | 0.972
148 | CCGGGGCATA | 6
149 | TGCAGGGGGA | 0.998
150 | CGGTACCGCA | 1.03
151 | ACGATGCCAT | 1.15
152 | TTCCACATGG | 1.12
153 | TCGCCAATCA | 1.09
154 | TCCATCCTGG | 1.04
155 | TACTTACGGT | 1.62
156 | CTACTGTCGT | 1.01

Row | Sequence | switch fluorescence ratio
157 | AAGGTGATGC | 1.07
158 | GGGTAATATC | 1.08
159 | CAGGTCGTGC | 0.985
160 | AGGGTTTTA | 1
161 | CCACTTCCTA | 1.15
162 | GGGAGCGGCA | 1.01
163 | CGTTTCCTAG | 0.991
164 | ACAGGACTTC | 1.03
165 | AGCATATTCT | 1.2
166 | GGGACCAGTT | 0.994
167 | GCGACTGCGC | 1.09
168 | AGATGTCCCA | 0.967
169 | GAGAGAAGTA | 0.979
170 | TATGGCATG | 0.992
171 | CTGGTGAGGT | 1
172 | CCATGTGCGG | 1.02
173 | TCGTATTGGC | 0.988
174 | GGCACCTCGC | 1.03
175 | CCACTCAGTT | 1.04
176 | AGGACGCCCA | 1.06
177 | GGAAAGGTGG | 1.11
178 | AATACGTACT | 1.64
179 | GATGAAAGTA | 0.978
180 | TCGAGGTCAC | 0.964
181 | TGAGAAATAG | 1.1
182 | GTGGTGGTGC | 0.968

Row | Sequence | switch fluorescence ratio
183 | TTTCTCAGAA | 0.977
184 | CTAAAAGCCG | 0.978
185 | ATACGGATTC | 1.03
186 | CGATGGATCG | 1.03
187 | AGAATCTTTG | 0.955
188 | ATACCATACG | 1.46
189 | TAAGGAAATG | 1.04
190 | TAGCGGCAAG | 1.04
191 | GAAGAGGTTC | 1.08
192 | CTTGGAGGAG | 0.987
193 | GATGACCAGA | 0.982
194 | AGGGGCGTCC | 0.959
195 | CGACTTTTTG | 0.921
196 | GTCGGCCATC | 0.972
197 | TAGCCGTTGT | 1.04
198 | GCAGGTGGGA | 1.01
199 | AGTATCACG | 0.999
200 | TATCCCATGG | 1.03
201 | CGTTTTGCCA | 0.969
